About 310 (0.076%) of roughly 410,000 compounds were called active. Inconclusive means that the source gave no clear call. Such entries were picked first, then a sample of the others. Calls come from the whole dose curve; as a rule, active = well fitted curve in the direction sought with a large enough effect; inconclusive = small, poorly fitted or top-dose-only effect; inactive = flat fitted curve, though single readings scatter. Potencies of inconclusive entries are doubtful fits and often do not repeat.
Each molecule was assayed against DNA dC->dU-editing enzyme APOBEC-3G (Homo sapiens) (UniProt Q9HC16) (assay: qHTS for Inhibitors of Vif-A3G Interactions: qHTS). Details: HeLa A3G-eYFP + Vif (tagged APOBEC3G with the HIV-1 protein that degrades it), YFP fluorescence, overnight; series mostly up to 46.1 µM.
UniProt Q9HC16, sequence (Q9HC16 whole entry, looked up): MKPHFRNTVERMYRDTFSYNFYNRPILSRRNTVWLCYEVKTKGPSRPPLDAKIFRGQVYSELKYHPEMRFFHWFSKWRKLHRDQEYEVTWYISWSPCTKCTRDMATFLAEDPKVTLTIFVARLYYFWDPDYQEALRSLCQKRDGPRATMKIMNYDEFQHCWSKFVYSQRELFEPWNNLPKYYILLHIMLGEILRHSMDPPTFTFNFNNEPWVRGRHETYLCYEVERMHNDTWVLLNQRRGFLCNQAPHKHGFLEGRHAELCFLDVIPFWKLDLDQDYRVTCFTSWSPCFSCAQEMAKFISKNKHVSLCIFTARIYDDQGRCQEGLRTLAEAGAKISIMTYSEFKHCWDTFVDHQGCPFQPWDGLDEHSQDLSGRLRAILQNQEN
Summary of the method: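 Read-out is eYFP fluorescence (Ex 488/Em 500-530) from Vif-expressing HeLa A3G-eYFP cells; more signal means A3G escaped Vif-mediated degradation. Cells plated overnight, compound pinned in, incubated overnight at 37 deg C.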
Note: nearly all actives have a fitted effect of over 60% in size.
Potency is the fitted concentration of half-maximal effect; tags give direction and shape of the fitted curve.

Compound	Potency
O=c1oc2ccccc2cc1-c1csc(Nc2ccc(O)cc2)n1	inconclusive: 3.55 µM [inhibitor, single point]
Cc1cc(C)c2nc(N(CCCN(C)C)C(=O)c3ccc4c(c3)OCCO4)sc2c1	inconclusive: 35.5 µM [inhibitor, single point]
CCc1cccc(NC(=O)C2CCN(S(=O)(=O)c3cccs3)CC2)c1	inactive
COc1ccc2c(c1OC)C(=O)OC2Nc1nc(-c2ccccc2)cs1 (stereo not given)	inconclusive: 3.55 µM [inhibitor, full curve]
COc1ccc(-c2nnnn2-c2ccccc2OC)cc1	inconclusive: 8.91 µM [inhibitor, partial curve, poor fit]
Cc1ccc(-c2nn3c(=O)cc(CN4CCN(C(=O)/C=C/c5ccccc5)CC4)nc3s2)cc1	inactive
CCOC(=O)C1Nc2ccccc2C2C(O)C(O)CC12 (stereo not given)	inconclusive: 14.1 µM [inhibitor, single point]
Cc1ccc(/C=N/NC(=O)C2CC(=O)N(c3ccccc3)C2)s1 (stereo not given)	inconclusive: 10 µM [inhibitor, partial curve, poor fit]
Cc1ccc2c(/C=C/c3ccc(N(C)C)cc3)ccnc2c1C	inconclusive: 25.1 µM [inhibitor, single point]
CCOC(=O)N1CCN(c2cc(NCCC(=O)O)c3c4c(onc24)-c2ccccc2C3=O)CC1	inconclusive: 3.16 µM [inhibitor, single point]
COc1cc2c(cc1OC)CN(C(=O)CCOc1ccccc1)CC2	inconclusive: 31.6 µM [inhibitor, partial curve, poor fit]
Cc1ccc(NC(=O)C(=Cc2ccc(C(=O)O)cc2)C(=O)Nc2ccc(C)cc2C)c(C)c1	inconclusive: 3.16 µM [inhibitor, full curve]
COc1cc(CNc2ccc(N3CCCCC3)cc2)ccc1OCC(=O)NC(C)(C)C	inactive
COc1ccc(S(=O)(=O)NCc2ccccn2)cc1NC(=O)c1ccccc1C	inconclusive: 4.47 µM [inhibitor, full curve, poor fit]
CCN(CC)c1ccc2cc(-c3nc(-c4cccs4)no3)c(=O)oc2c1	inconclusive: 8.91 µM [inhibitor, partial curve]
NNC(=O)c1ccc(N2CCCCCC2)c([N+](=O)[O-])c1	inconclusive: 22.4 µM [inhibitor, single point]
O=C(Cc1ccccc1)NNc1ccc2ccccc2c1	inconclusive: 10 µM [inhibitor, partial curve]
Cc1cc(Br)ccc1NC(=O)C1CCCN(S(=O)(=O)c2cccc3nonc23)C1 (stereo not given)	inactive
N#CC1=C(N)SC(N)=C(C#N)C1c1c(Cl)cccc1Cl	inconclusive: 31.6 µM [inhibitor, single point]
CCOc1cc(/C=C2\SC(=S)N(Nc3ccccc3)C2=O)ccc1O	inconclusive: 20 µM [inhibitor, single point]
COc1cc(OC)c2c(-c3cccc(-c4ccc(N(C)C)cc4)c3)cc(=O)oc2c1	inconclusive: 0.562 µM [inhibitor, full curve, poor fit]
CCc1ccc(NCc2cc3cc4c(cc3n(CC(=O)Nc3ccccc3OC)c2=O)OCCO4)cc1	inactive
N#C/C(=C\c1ccc(Sc2ccc(Cl)cc2)o1)c1nc2ccccc2[nH]1	inconclusive: 22.4 µM [inhibitor, single point]

Compound	Potency
CCC[N+](C)(C)c1ccc(/C=C/c2ccncc2)cc1	inconclusive: 10 µM [inhibitor, partial curve, poor fit]
Cc1ccc(-n2nc3ccc(N)cc3n2)cc1	inactive
Fc1ccc(COc2ccc3ccccc3c2CNc2nn[nH]n2)cc1	active: 12.6 µM
CC1=C(C(=O)Nc2ccccc2)C(c2ccc(C)cc2)N=C(Nc2nc3ccccc3o2)N1 (stereo not given)	inconclusive: 22.4 µM [inhibitor, single point]
CCc1ccc(NC(=S)NC2CC3CCCC(C2)N3Cc2cccs2)cc1 (stereo not given)	inactive
COc1cc(C(=S)N2CCOCC2)cc(OC)c1OS(=O)(=O)c1ccc(Cl)cc1	inactive
CCOc1ccc(/C=C2/C(=O)N(c3ccc(OC)cc3)C(=S)N2CC(=O)OC)cc1OCC	inactive
C=C1CCN(Cc2ccc(OC)cc2)S(=O)(=O)c2ccccc21	inconclusive: 6.31 µM [inhibitor, full curve]
C=CCn1c(O)c(N=NC(=O)CNC(=O)c2ccco2)c2ccccc21	inconclusive: 10 µM [inhibitor, partial curve]
COC(=O)c1ccc2c(=O)[nH]c(CCl)nc2c1	inconclusive: 22.4 µM [inhibitor, single point]
Cc1[nH]c(=O)[nH]c1C(=O)CCCCC(=O)O	inactive
CC(S(=O)(=O)c1ccccc1)S(=O)(=O)c1ccccc1	inactive
C/C(=N\NC(=O)c1csc2ccccc12)c1ccc(O)cc1	inconclusive: 35.5 µM [inhibitor, single point]
CCn1c(SCc2cccc(Br)c2)nnc1-c1nonc1NC(C)=O	inactive
COc1cc2[nH]c(-c3cccc(F)c3)cc(=O)c2cc1OC	inconclusive: 20 µM [inhibitor, single point]
Cc1cc(C)nc(-n2ncc3c2CC(c2cccc(Cl)c2)CC3=O)n1 (stereo not given)	inconclusive: 22.4 µM [inhibitor, single point]
CCn1ncc(C2=NOC(C(=O)NCc3ccccc3)C2)c1C (stereo not given)	inconclusive: 2.24 µM [inhibitor, full curve, poor fit]
CCCc1nc2sc3c(SCC(=O)NCc4ccco4)ncnc3c2c2c1CCC2	inconclusive: 7.94 µM [inhibitor, partial curve]
COc1ccccc1Cc1c(C(C)(C)C)nc2ccc(C)cn12	inconclusive: 35.5 µM [inhibitor, single point]
Clc1ccc2nc(-c3ccco3)c(Cc3ccccc3)n2c1	inactive
CCOC(CN=c1nc(N(C)C)ss1)OCC	inactive
Clc1ccc2c(N/N=C/c3ccc(Br)cc3)ccnc2c1	inconclusive: 25.1 µM [inhibitor, partial curve, poor fit]
